Test results taken from the supplement of paper PMC8728848.
This is one part of the list.

How the values were obtained:
Assay in all cases: glycan array binding signal (z-score within array); higher = stronger binding
Settings in all cases: glycan notation: IUPAC condensed, linker removed
[1] = target: Gal(b1-4)GlcNAc(b1-3)Gal(b1-4)GlcNAc(b1-3)Gal(b1-4)GlcNAc(b1-2)Man(a1-3)[Gal(b1-4)GlcNAc(b1-3)Gal(b1-4)GlcNAc(b1-3)Gal(b1-4)GlcNAc(b1-2)Man(a1-6)]Man(b1-4)GlcNAc(b1-4)GlcNAc
In short: (§1)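 The Consortium for Functional Glycomics database supplied 3228 glycan arrays, of which those lacking an available protein sequence were dropped. The binding signal, a within-array Z-score, was averaged across arrays of the same protein sequence and across linkers. Negative scores can be read as non-binding.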

[2] = target: Gal(b1-4)GlcNAc(b1-3)Gal(b1-4)GlcNAc(b1-3)Gal(b1-4)GlcNAc(b1-2)Man(a1-3)[Gal(b1-4)GlcNAc(b1-3)Gal(b1-4)GlcNAc(b1-3)Gal(b1-4)GlcNAc(b1-2)Man(a1-6)]Man(b1-4)GlcNAc(b1-4)[Fuc(a1-6)]GlcNAc
In short: as §1

[3] = target: Gal(b1-4)GlcNAc(b1-3)Gal(b1-4)GlcNAc(b1-3)Gal(b1-4)GlcNAc(b1-2)[Gal(b1-4)GlcNAc(b1-3)Gal(b1-4)GlcNAc(b1-3)Gal(b1-4)GlcNAc(b1-6)]Man(a1-6)[Gal(b1-4)GlcNAc(b1-3)Gal(b1-4)GlcNAc(b1-3)Gal(b1-4)GlcNAc(b1-2)Man(a1-3)]Man(b1-4)GlcNAc(b1-4)[Fuc(a1-6)]GlcNAc
In short: as §1

[4] = target: Gal(b1-4)GlcNAc(b1-3)Gal(b1-4)GlcNAc(b1-3)Gal(b1-4)GlcNAc(b1-3)Gal(b1-4)GlcNAc(b1-2)Man(a1-3)[Gal(b1-4)GlcNAc(b1-3)Gal(b1-4)GlcNAc(b1-3)Gal(b1-4)GlcNAc(b1-3)Gal(b1-4)GlcNAc(b1-2)Man(a1-6)]Man(b1-4)GlcNAc(b1-4)GlcNAc
In short: as §1

[5] = target: Gal(b1-4)GlcNAc(b1-3)Gal(b1-4)GlcNAc(b1-3)Gal(b1-4)GlcNAc(b1-3)Gal(b1-4)GlcNAc(b1-2)Man(a1-3)[Gal(b1-4)GlcNAc(b1-3)Gal(b1-4)GlcNAc(b1-3)Gal(b1-4)GlcNAc(b1-3)Gal(b1-4)GlcNAc(b1-2)Man(a1-6)]Man(b1-4)GlcNAc(b1-4)[Fuc(a1-6)]GlcNAc
In short: as §1

[6] = target: Gal(b1-4)GlcNAc(b1-3)Gal(b1-4)GlcNAc(b1-3)Gal(b1-4)GlcNAc(b1-3)Gal(b1-4)GlcNAc(b1-2)[Gal(b1-4)GlcNAc(b1-3)Gal(b1-4)GlcNAc(b1-3)Gal(b1-4)GlcNAc(b1-3)Gal(b1-4)GlcNAc(b1-6)]Man(a1-6)[Gal(b1-4)GlcNAc(b1-3)Gal(b1-4)GlcNAc(b1-3)Gal(b1-4)GlcNAc(b1-3)Gal(b1-4)GlcNAc(b1-2)Man(a1-3)]Man(b1-4)GlcNAc(b1-4)[Fuc(a1-6)]GlcNAc
In short: as §1

[7] = target: Gal(b1-4)GlcNAc(b1-3)Gal(b1-4)GlcNAc(b1-3)Gal(b1-4)GlcNAc(b1-3)Gal(b1-4)GlcNAc(b1-3)Gal(b1-4)GlcNAc(b1-2)Man(a1-3)[Gal(b1-4)GlcNAc(b1-3)Gal(b1-4)GlcNAc(b1-3)Gal(b1-4)GlcNAc(b1-3)Gal(b1-4)GlcNAc(b1-3)Gal(b1-4)GlcNAc(b1-2)Man(a1-6)]Man(b1-4)GlcNAc(b1-4)GlcNAc
In short: as §1

[8] = target: Gal(b1-4)GlcNAc(b1-3)Gal(b1-4)GlcNAc(b1-3)Gal(b1-4)GlcNAc(b1-3)Gal(b1-4)GlcNAc(b1-3)Gal(b1-4)GlcNAc(b1-2)Man(a1-3)[Gal(b1-4)GlcNAc(b1-3)Gal(b1-4)GlcNAc(b1-3)Gal(b1-4)GlcNAc(b1-3)Gal(b1-4)GlcNAc(b1-3)Gal(b1-4)GlcNAc(b1-2)Man(a1-6)]Man(b1-4)GlcNAc(b1-4)[Fuc(a1-6)]GlcNAc
In short: as §1

[9] = target: Gal(b1-4)GlcNAc(b1-3)Gal(b1-4)GlcNAc(b1-3)Gal(b1-4)GlcNAc(b1-3)Gal(b1-4)GlcNAc(b1-3)Gal(b1-4)GlcNAc(b1-2)[Gal(b1-4)GlcNAc(b1-3)Gal(b1-4)GlcNAc(b1-3)Gal(b1-4)GlcNAc(b1-3)Gal(b1-4)GlcNAc(b1-3)Gal(b1-4)GlcNAc(b1-6)]Man(a1-6)[Gal(b1-4)GlcNAc(b1-3)Gal(b1-4)GlcNAc(b1-3)Gal(b1-4)GlcNAc(b1-3)Gal(b1-4)GlcNAc(b1-3)Gal(b1-4)GlcNAc(b1-2)Man(a1-3)]Man(b1-4)GlcNAc(b1-4)[Fuc(a1-6)]GlcNAc
In short: as §1

[10] = target: Gal(b1-4)GlcNAc(b1-3)Gal(b1-4)GlcNAc(b1-3)Gal(b1-4)GlcNAc(b1-3)Gal(b1-4)GlcNAc(b1-3)Gal(b1-4)GlcNAc(b1-3)Gal(b1-4)GlcNAc(b1-2)Man(a1-3)[Gal(b1-4)GlcNAc(b1-3)Gal(b1-4)GlcNAc(b1-3)Gal(b1-4)GlcNAc(b1-3)Gal(b1-4)GlcNAc(b1-3)Gal(b1-4)GlcNAc(b1-3)Gal(b1-4)GlcNAc(b1-2)Man(a1-6)]Man(b1-4)GlcNAc(b1-4)GlcNAc
In short: as §1

[11] = target: Gal(b1-4)GlcNAc(b1-3)Gal(b1-4)GlcNAc(b1-3)GalNAc
In short: as §1

[12] = target: Gal(b1-4)GlcNAc(b1-3)Gal(b1-4)GlcNAc(b1-3)[Gal(b1-4)GlcNAc(b1-3)Gal(b1-4)GlcNAc(b1-6)]GalNAc
In short: as §1

[13] = target: Gal(b1-4)GlcNAc(b1-3)Gal(b1-4)GlcNAc(b1-6)[Gal(b1-3)]GalNAc
In short: as §1

[14] = target: Gal(b1-4)GlcNAc(b1-3)Gal(b1-4)[Fuc(a1-3)]GlcNAc(b1-3)Gal(b1-4)[Fuc(a1-3)]GlcNAc
In short: as §1

[15] = target: Gal(b1-4)GlcNAc(b1-3)GalNAc
In short: as §1

[16] = target: Gal(b1-4)GlcNAc(b1-3)[Fuc(a1-3)GlcNAc(b1-6)]Gal(b1-4)Glc
In short: as §1

[17] = target: Gal(b1-4)GlcNAc(b1-3)[Gal(b1-4)GlcNAc(b1-6)]Gal(b1-4)GlcNAc
In short: as §1

[18] = target: Gal(b1-4)GlcNAc(b1-3)[GlcNAc(b1-6)]Gal(b1-4)GlcNAc
In short: as §1

[19] = target: Gal(b1-4)GlcNAc(b1-6)Gal(b1-4)GlcNAc
In short: as §1

B1: PX14343A-bvu-539-29-539 (Bacteroides vulgatus) (protein)
chain: DSLTESSSNTFWQTPDDALMALASCYDALQSNQLYNSDQYSLGPLYMDCISDNGGHFNWSGWMEGYDMAMGIHTPSSSIIGSYWKDCYEVISRCNVLIANIDRVDMDASQKAIYQAEAKTIRALMYINLTMTYQDVPFLTAPLTIDEAECEKTDRAAIVAHVMTDLQDAAEVLPQNASSRGHITKGAALSLLGRVALYNEKWDDAIAAYKQVQGLGYSLDPSYAKLFTQSGETSPEIIFAVRYEGPGMSEGAAFNAHWNTPLEAMNGTIDLADAYYCKDGKPTTDTKIAELNGGGGLDVSKPNPAHFENRDPRLYSTLFVPGMLWNGKGGIDTSASNPYANVYGGAAASLSTVYVYKYFDPTDTSNSWDNGQDFYVVRYAEVLLSLAEAMVQKGGYVYSDVTALVNEVRQRADVNMPTVEEVEGTSLSKDELLEVIKHERRVELAFEGLRLFDLYRWKELDKAVANIENERTMYGLAYEARKFNGERDYVWPLPTAELDTNKKLVQHDLWK
- glycan array binding signal (z-score) [1]: 1.35
- glycan array binding signal (z-score) [2]: 0.909
- glycan array binding signal (z-score) [3]: -0.078
- glycan array binding signal (z-score) [4]: 6.18
- glycan array binding signal (z-score) [5]: 0.053
- glycan array binding signal (z-score) [6]: 3.38
- glycan array binding signal (z-score) [7]: 2.78
- glycan array binding signal (z-score) [8]: 1.07
- glycan array binding signal (z-score) [9]: 9.28
- glycan array binding signal (z-score) [10]: 0.22
- glycan array binding signal (z-score) [11]: -0.359
- glycan array binding signal (z-score) [12]: -0.061
- glycan array binding signal (z-score) [13]: 0.032
- glycan array binding signal (z-score) [14]: 0.322
- glycan array binding signal (z-score) [15]: -0.392
- glycan array binding signal (z-score) [16]: -0.334
- glycan array binding signal (z-score) [17]: -0.223
- glycan array binding signal (z-score) [18]: -0.381
- glycan array binding signal (z-score) [19]: -0.311
